The structures appear in SMILES notation. This is one part of the list.

The test has as its system S. aureus RN4220. Nature of the test: growth inhibition call (relative growth <= 0.2). The settings on record: 50 µM.
Regarding `C[C@@H]1CN([C@@H](C)CO)C(=O)Cc2cc(NS(=O)(=O)c3cn(C)cn3)ccc2O[C@@H]1CN(C)C(=O)NC1CCCCC1`, the growth inhibition call is “inactive”.
As for `Nc1ncnc2c1ncn2[C@@H]1O[C@H](CO)C[C@H]1O`, the growth inhibition call was “inactive”.
As for `C[C@H](CO)N1C[C@H](C)[C@@H](CN(C)Cc2ccc(C(=O)O)cc2)Oc2ccc(NC(=O)C3CC3)cc2C1=O`, the growth inhibition call is “inactive”.
With `Nc1c(C(=O)c2ccccc2)no[n+]1[O-]`, the growth inhibition call was “inactive”.
Regarding `COc1c(-c2ccccc2)oc2cc(O)cc(O)c2c1=O`, the growth inhibition call is “inactive”.
The result for `CC(C)NC(=O)N(C)C[C@@H]1Oc2c(NS(=O)(=O)c3cn(C)cn3)cccc2C(=O)N([C@@H](C)CO)C[C@@H]1C` reads “inactive”; that for `O=C(C[C@H]1CC[C@@H](NC(=O)CN2CCOCC2)[C@@H](CO)O1)NC1CCC1`, “inactive”.
Regarding `C/C(=C/CC[C@@H](CO)[C@H]1CC[C@@]2(C)[C@H]3CC[C@@H]4C(C)(C)[C@H](O[C@H]5O[C@@H](CO)[C@@H](O)[C@@H](O)[C@@H]5O)C[C@H](O)[C@@]45C[C@@]35CC[C@@]12C)CO[C@H]1O[C@@H](CO)[C@@H](O)[C@@H](O)[C@@H]1O`, the growth inhibition call is “inactive”.
Turning to `O=C(C=Cc1ccccc1)c1ccc(OC2OC(CO)C(O)C(O)C2O)cc1O` (stereo unspecified), the growth inhibition call was “inactive”.
For `COCC#Cc1ccc2c(c1)O[C@@H](CN(C)Cc1ccc3c(c1)OCO3)[C@H](C)CN([C@H](C)CO)S2(=O)=O`, the growth inhibition call is “inactive”.
`C[C@H]1CCCCO[C@H](CN(C)Cc2ccc3c(c2)OCO3)[C@@H](C)CN([C@@H](C)CO)C(=O)c2cc(NC(=O)C3CCCCC3)ccc2O1`: the growth inhibition call was “inactive”.

(Values after the antibiotic and cytotoxicity screens of Wong et al. (2023).)
